Source: article PMC4336329 (PLoS ONE, 2015)
The campaign covered roughly 310,000 compounds. About 2,200 (0.71%) showed an effect of 50% or more. The effect is printed as a negative number. Some of the results follow.

Molecular target: human ether-à-go-go-related gene (hERG) potassium channel (human, UniProt Q12809)
Experiment: primary screen, population patch clamp on CHO cells stably expressing hERG

Sequence of human ether-à-go-go-related gene (hERG) potassium channel (Q12809 whole entry, looked up): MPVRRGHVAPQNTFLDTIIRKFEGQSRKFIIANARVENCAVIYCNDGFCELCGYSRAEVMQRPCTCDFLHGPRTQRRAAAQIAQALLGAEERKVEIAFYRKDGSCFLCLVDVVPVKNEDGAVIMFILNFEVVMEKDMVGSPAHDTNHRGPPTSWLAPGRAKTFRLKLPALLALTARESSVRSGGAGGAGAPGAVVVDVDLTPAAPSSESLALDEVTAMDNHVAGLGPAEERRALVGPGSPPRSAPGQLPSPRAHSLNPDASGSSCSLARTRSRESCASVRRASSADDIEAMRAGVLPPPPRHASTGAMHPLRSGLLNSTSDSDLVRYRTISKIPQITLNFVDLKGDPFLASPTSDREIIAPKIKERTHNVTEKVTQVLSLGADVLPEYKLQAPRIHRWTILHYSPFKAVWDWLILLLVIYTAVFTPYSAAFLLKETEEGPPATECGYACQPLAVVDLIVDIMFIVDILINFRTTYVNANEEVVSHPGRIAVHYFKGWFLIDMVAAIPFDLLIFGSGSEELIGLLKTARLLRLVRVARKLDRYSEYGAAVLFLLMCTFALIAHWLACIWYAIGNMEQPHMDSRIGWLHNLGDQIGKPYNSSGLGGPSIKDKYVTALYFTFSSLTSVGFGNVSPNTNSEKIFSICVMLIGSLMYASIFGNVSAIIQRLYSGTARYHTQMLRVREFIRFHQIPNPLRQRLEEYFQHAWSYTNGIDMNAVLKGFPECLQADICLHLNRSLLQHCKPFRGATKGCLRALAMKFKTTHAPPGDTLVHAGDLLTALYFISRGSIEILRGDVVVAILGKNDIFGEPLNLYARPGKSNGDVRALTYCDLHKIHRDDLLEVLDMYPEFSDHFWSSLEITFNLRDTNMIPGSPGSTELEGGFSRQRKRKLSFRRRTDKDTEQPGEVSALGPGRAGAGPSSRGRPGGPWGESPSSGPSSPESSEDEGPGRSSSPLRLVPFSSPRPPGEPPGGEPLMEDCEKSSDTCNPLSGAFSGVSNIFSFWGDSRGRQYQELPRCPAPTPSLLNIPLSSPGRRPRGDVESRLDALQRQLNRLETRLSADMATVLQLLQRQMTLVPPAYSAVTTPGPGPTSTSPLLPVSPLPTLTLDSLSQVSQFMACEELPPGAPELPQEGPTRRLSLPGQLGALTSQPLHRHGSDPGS

In order of falling “hERG current change (%, negative = inhibition) at 1uM” value:
1. NC(=O)c1ccc(C(=O)N/N=C(/Cc2ccccc2)c2ccccc2)cc1  16.4%
2. O=C(/C(C=Nc1cccc(C(F)(F)F)c1)=C(/O)c1ccco1)C(F)(F)F  16.2%
3. COc1ccccc1OC(C)C(=O)Nc1nc(-c2ccc(S(=O)(=O)N3CCOCC3)cc2)cs1 (stereo not shown)  15.8%
4. COc1ccccc1NCCC(=O)O  15.7%
5. CCN1CCCC1CNC(=O)c1cc(N)ccc1OC.O.O=C(O)C(=O)O (stereo not shown)  15.5%
6. CNC(=O)C1(C)C=CCN1C(=O)c1ccccc1 (stereo not shown)  15.4%
7. CC(C)OP(=O)(OC(C)C)C(NC(=O)c1ccccc1Br)C(N)=O (stereo not shown)  15.2%
8. Nc1c2c(nc3sc4c(c13)CCCC4)-c1ccccc1CC2  14.2%
9. Cc1cnc(NC(=O)c2ccncc2)s1  14.2%
10. CC#CC[N+](C)(C)CC(=O)c1ccccc1.[Br-]  13.5%
11. CC(C)n1nnnc1SCC(=O)NCc1cccs1  12.3%
12. Cc1cc(C)c2ccc(=S)[nH]c2n1  12%
13. Cc1ncn2cc(-c3ccc(Cl)cc3Cl)[nH]c(=O)c12  12%
14. Cc1ccc(C(C#N)c2ccc3c(C(F)(F)F)cc(C(F)(F)F)nc3n2)cc1 (stereo not shown)  11.8%
15. CC(C)N1CCc2c(sc(NC(=O)c3ccc([N+](=O)[O-])o3)c2C(N)=O)C1.Cl  11.5%
16. COc1ccc(NC(=O)NC(c2ccccc2)c2ccccc2)c(OC)c1  11.3%
17. Cc1cccc(C)c1Nc1nnc(SCC(=O)NCc2ccco2)s1  10.7%
18. CCOC(=O)CSc1nnc(CNC(=O)c2cccc(C)c2)n1C  10.7%
19. O=C(OCC(=O)N1CCOCC1)c1c(Cl)ccc(Cl)c1Cl  10.5%
20. COc1ccc(S(=O)(=O)Oc2ccc(C(=S)N3CCOCC3)cc2OC)cc1  10.3%
21. CS(=O)(=O)N(CC(=O)NCCSCc1ccccc1)c1ccccc1  9.56%
22. COc1cccc(N2CCN(C(=S)Nc3ccc(F)cc3)CC2)c1  9.41%
23. CNC(=S)N1N=C(c2ccc(C)cc2)CC1c1ccc(OC)cc1 (stereo not shown)  8.97%
24. Cc1cc(C)nc(NS(=O)(=O)c2ccc(-n3cccc3)cc2)n1  8.65%
25. COc1ccccc1CNC(=O)CNC(=O)c1ccc(Br)o1  8.17%
26. O=C(CSc1nnnn1-c1ccccc1)Nc1ccc(Cl)cn1  7.19%
27. O=[n+]1c2c(n([O-])c3cc(Br)ccc31)CCCC2  6.09%
28. c1cc(-c2noc(CCC3CCCC3)n2)ccn1  5.95%
29. COc1ccc(CNC(=O)C(=O)NCC2OCCN2C(=O)c2ccc(OC)cc2)cc1 (stereo not shown)  5.83%
30. CCSc1nnc(SCC(=O)N2CCN(C(=O)c3ccco3)CC2)s1  5.62%
31. COc1cccc(NC(=O)NC(=O)c2c(C)cc(Cl)nc2Cl)c1  5.15%
32. CC(=O)c1cccc(NC(=O)N2CCN(S(C)(=O)=O)CC2)c1  4.94%
33. O=C(N/C(=C\c1cccc([N+](=O)[O-])c1)C(=O)N1CCCCC1)c1cccs1  4.76%
34. Cc1ccc(C)c(N2CCN(C(=O)C3CCCN(S(=O)(=O)c4cnc[nH]4)C3)CC2)c1 (stereo not shown)  4.47%
35. COC(=O)COc1nc(C)c2c(c1C#N)CC(C)(C)OC2  4.35%
36. Cc1cccc(NC(=O)C2CCCN2C(=O)OCC(C)C)c1 (stereo not shown)  4.3%
37. S=C(Nc1ccccc1Cl)N(Cc1cccnc1)Cc1ccco1  4.18%
38. CCOC(=O)C1CCCN(C(=O)c2sc3nc4n(c(=O)c3c2C)CCC4)C1 (stereo not shown)  3.76%
39. Cc1ccc(N2C(=O)c3sc4nnc(C)c(=O)n4c3C2=O)cc1  3.11%
40. CC(C)c1ccc(S(=O)(=O)c2nnn3c2nc(NCC2CCCO2)c2ccccc23)cc1 (stereo not shown)  2.42%
41. CCCCN(C(=O)c1ccc(Br)o1)C1CCS(=O)(=O)C1 (stereo not shown)  2.4%
42. CCCNC(=O)C1CN(S(=O)(=O)c2ccc(C)cc2)c2ccccc2O1 (stereo not shown)  2.33%
43. COc1ccc(CC(=O)N2CCc3cc(OC)c(OC)cc3C2C)c(OC)c1 (stereo not shown)  1.6%
44. COc1ccccc1C(=O)Nc1cccc(NC(C)=O)c1  0.451%
45. CCN(C(=O)c1cc2c(C)nc3ccccc3c2o1)c1cc(Cl)ccc1OC  -0.548%
46. CCO/C(C)=N/n1c2nc3ccccc3nc2c2c(=O)n(Cc3ccccc3Cl)c(C)nc21  -0.93%
47. C=CCN(C(=O)Cn1nc(C)n2c(cc3cc(C)ccc32)c1=O)c1ccccc1  -2.35%
48. Cc1ccccc1Nc1ncnc(N)n1  -2.79%
49. COc1ccc(NC(=S)N(CCCN2CCCC2)Cc2ccco2)cc1  -3.12%
50. CCOC(=O)C1(CCOc2ccccc2)CCN(Cc2ccccc2O)CC1  -8.86%
51. CC(C)Cn1c(SCC(=O)c2ccc(Cl)s2)nnc1-c1ccco1  -9.8%
52. O=C(C1CC1)N(CCc1ccccc1)Cc1nc2ccccc2c(=O)[nH]1  -10.8%
53. COc1cccc(NC(=O)c2cc([N+](=O)[O-])ccc2N2CCN(C)CC2)c1  -12.4%
54. Cc1ccc(S(=O)(=O)N2CCN(C(=O)c3ccccc3)CC2)cc1  -13.6%
55. COc1ccc(/C=C/C(=O)N(Cc2ccccc2)c2ccccn2)cc1OC  -22.2%
56. CCN1CCN(C(CNS(=O)(=O)c2ccc(Br)cc2)c2cccnc2)CC1 (stereo not shown)  -26.2%
57. COc1ccc(N2CCN(C(=O)C3CCN(C(=O)c4ccc([N+](=O)[O-])cc4)CC3)CC2)cc1  -33.6%
58. CCC(=O)c1ccc(OCC(O)CN2CCN(C(c3ccccc3)c3ccccc3)CC2)cc1 (stereo not shown)  -51.4%
